Out of some 310,000 compounds screened, about 14,000 (4.5%) showed an effect of 50% or more. The effect is printed as a negative number. This is one part of the list.
target: human ether-à-go-go-related gene (hERG) potassium channel (human, UniProt Q12809); experiment: primary screen, population patch clamp on CHO cells stably expressing hERG
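Further: peak tail current of the secondary pulse compared with the same well before compound.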

Sequence of human ether-à-go-go-related gene (hERG) potassium channel (Q12809 whole entry, looked up): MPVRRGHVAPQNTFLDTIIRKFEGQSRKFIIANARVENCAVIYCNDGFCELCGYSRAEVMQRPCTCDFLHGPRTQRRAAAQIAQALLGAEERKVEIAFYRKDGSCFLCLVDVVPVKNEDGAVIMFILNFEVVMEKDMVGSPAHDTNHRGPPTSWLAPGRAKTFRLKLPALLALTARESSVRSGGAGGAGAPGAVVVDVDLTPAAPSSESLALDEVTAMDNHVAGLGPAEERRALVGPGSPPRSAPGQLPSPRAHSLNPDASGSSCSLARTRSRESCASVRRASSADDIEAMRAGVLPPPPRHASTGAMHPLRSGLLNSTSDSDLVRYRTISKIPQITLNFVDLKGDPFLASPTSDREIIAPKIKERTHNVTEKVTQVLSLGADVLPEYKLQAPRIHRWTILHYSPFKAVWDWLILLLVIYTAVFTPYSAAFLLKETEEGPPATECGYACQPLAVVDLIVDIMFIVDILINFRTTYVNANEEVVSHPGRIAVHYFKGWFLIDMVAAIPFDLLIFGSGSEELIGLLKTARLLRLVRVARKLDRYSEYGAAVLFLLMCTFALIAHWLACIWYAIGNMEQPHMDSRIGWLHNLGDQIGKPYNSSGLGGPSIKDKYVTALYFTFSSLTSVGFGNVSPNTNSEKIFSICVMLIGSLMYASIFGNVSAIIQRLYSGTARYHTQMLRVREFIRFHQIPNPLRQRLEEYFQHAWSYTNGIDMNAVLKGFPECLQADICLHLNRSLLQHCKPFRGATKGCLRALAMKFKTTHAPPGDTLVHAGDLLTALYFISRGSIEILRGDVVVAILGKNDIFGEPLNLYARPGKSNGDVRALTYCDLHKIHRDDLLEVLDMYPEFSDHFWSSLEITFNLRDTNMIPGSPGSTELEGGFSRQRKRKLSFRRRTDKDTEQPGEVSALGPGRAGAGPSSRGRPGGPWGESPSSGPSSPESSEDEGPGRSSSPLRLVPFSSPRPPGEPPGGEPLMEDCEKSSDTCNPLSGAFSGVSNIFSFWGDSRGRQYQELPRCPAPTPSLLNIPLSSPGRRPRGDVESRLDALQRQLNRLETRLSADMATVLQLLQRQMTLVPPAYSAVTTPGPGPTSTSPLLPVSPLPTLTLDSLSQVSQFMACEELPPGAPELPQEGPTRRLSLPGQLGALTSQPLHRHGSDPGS

Compound | hERG current change (%, negative = inhibition) at 10uM
O=C(O)C1CC=C(Cl)CC1C(=O)NCC1OCCc2ccccc21 (centres unmarked) | 10.5%
CCOc1ccc(NC(=O)C(C)C(Cc2ccc(C)cc2)C(=O)O)cc1 (centres unmarked) | 10.1%
Cc1cc(C)nc(N/N=C/c2cccc(Cl)c2)n1 | -26.7%
COc1ccc(S(=O)(=O)N2CCOCC2)cc1NC(=O)CSc1ccc(F)cc1 | -42.6%
O=C(Cn1cnc2ccccc2c1=O)N1CCN(S(=O)(=O)c2ccc(F)cc2)CC1 | -13.6%
CCCc1nn2c(=O)cc(CSCC(=O)Nc3ccccc3)nc2s1 | 21.4%
O=C(OCC(=O)N1CCCc2ccccc21)c1ccc(S(=O)(=O)C(F)F)cc1 | -28.8%
O=C(CSc1ncnc2sccc12)NCc1ccc2c(c1)OCO2 | -16.9%
Cc1cc(C(=O)CN(Cc2ccc(F)cc2)S(=O)(=O)c2ccc3c(c2)OCCO3)c(C)n1C | 6.98%
COc1c(F)c(F)c(C(=O)Nc2cccc(Cl)c2N2CCOCC2)c(F)c1F | 11.4%
CCCCNC(=O)c1cc2c(=O)n(CC)c3ccccc3c2s1 | 12.8%
CN(Cc1cccnc1)Cc1cn(Cc2ccccc2)nc1-c1ccc2c(c1)OCO2 | -11.7%
CC(=O)Nc1ccc(SCc2ncc(-c3ccccc3)o2)cc1 | -12.2%
CCSc1nnc(NC(=O)CSc2nc(C)cc(C)n2)s1 | -17.8%
O=C(O)C1Cc2ccccc2CN1C(=O)COc1ccc(Cl)cc1 (centres unmarked) | 9.84%
COc1ccc([N+](=O)[O-])cc1NC1CCN(C(=O)c2cccs2)CC1 | -85.7%
CCCn1c(SCC(=O)NCc2ccc(Cl)cc2)n[nH]c1=O | 7.48%
CCCOc1ccc2c(CC)cc(=O)oc2c1C | 1.32%
O=C(CN1CCN(S(=O)(=O)c2cc(Cl)ccc2Cl)CC1)c1ccc(O)c(O)c1 | 26.3%

Compound | hERG current change (%, negative = inhibition) at 10uM
COc1cc(/C=N/NC(=O)CC2(C)OCCCO2)ccc1OCc1ccccc1 | 1.35%
COC(=O)Nc1ccc(S(=O)(=O)N2CCCCC2)cc1 | -4.21%
Cc1cccc(OCC(O)Cn2c(=N)n(CCN3CCOCC3)c3ccccc32)c1.Cl (centres unmarked) | -57.9%
CCCCCn1c(=O)c(C(=O)Nc2ncccc2C)c(O)c2ccccc21 | 15.3%
Cc1ccc2nc(-c3ccc(N)cc3)sc2c1 | 12%
CN1CCCCCC1=Nc1ccccc1C#N.O=C(O)C(=O)O | 13.2%
CCSc1nnc(C)n1-c1ccc(C(=O)O)cc1 | 13%
Cc1ccc(Cl)cc1N1CCN(C(=O)c2noc(C)c2[N+](=O)[O-])CC1 | 1.15%
Cc1cc(C(=O)Nc2ccc(S(=O)(=O)N3CCOCC3)cc2)c(C)o1 | 0.297%
O=C1NC(c2cccc([N+](=O)[O-])c2)Oc2ccccc21 (centres unmarked) | 1.05%
Cc1cc(Br)cc(/C=N/NC(=O)c2ccc3c(c2)OCO3)c1O | 23.1%
CN1CCOC(=O)/C1=N/Nc1cc(Cl)ccc1Cl | 24.7%
Cc1ccc2nc(N/C(=N/S(=O)(=O)c3ccc(F)cc3F)c3ccccc3)sc2c1 | 24%
C/C(CC(=O)Nc1ccccn1)=N\NC(=O)c1ccc([N+](=O)[O-])cc1Cl | -17.3%
O=C(O)c1ccc(CS(=O)(=O)c2ccc(Br)cc2)cc1 | 7.12%
O=C(CSc1nnc(-c2ccccc2)o1)NC1CCCCC1 | -16.6%
CC1CCN(C(=O)Cn2nnc(-c3ccc(N)cc3)n2)CC1 | 17.7%
CCN(C(=O)CSc1nc2ccccc2o1)C1CCS(=O)(=O)C1 (centres unmarked) | -3.25%
CCc1cc(=O)oc2c(C)c(OCC(=O)N3C[C@H]4C[C@@H](C3)c3cccc(=O)n3C4)ccc12 | 5.08%

Compound | hERG current change (%, negative = inhibition) at 10uM
O=C(C1CC1)N1N=C(c2ccccc2)CC1(O)C(F)(F)C(F)(F)F (centres unmarked) | -10.1%
CCn1c2ccccc2c2cc(CN3CCN(S(=O)(=O)CC)CC3)ccc21.O=C(O)C(=O)O | -13.4%
CCOC(=O)/C(C#N)=C/c1cccn1-c1ccc(Cl)cc1 | 2.73%
CCOC(=O)c1c(NC(=O)COc2ccccc2OCC)sc2c1CC(C)(C)NC2(C)C | 13.3%
Cc1ccc(CNC(=O)C(C)OC(=O)c2ccco2)cc1 (centres unmarked) | -2.97%
Cc1cc(C)c(-n2c(O)c(/C=N/N3CCCCC3c3cccnc3)c(=O)[nH]c2=O)c(C)c1 (centres unmarked) | 4.41%
COc1cc(-n2c(=S)[nH]c3ccccc3c2=O)c(Cl)cc1Cl | -2.77%
CS(=O)(=O)N1CCN(Cc2ccc(C(F)(F)F)cc2)CC1.O=C(O)C(=O)O | 0.441%
Cc1cccc(-n2c(-c3ccncc3)n[nH]c2=S)c1C | 16%
CCCCCCCC(=O)NC(Nc1ccc(S(N)(=O)=O)cc1)C(Cl)(Cl)Cl (centres unmarked) | -5.89%
O=C(CCNS(=O)(=O)c1cccc2nonc12)NCCc1ccc(Cl)cc1 | -15.2%
Cc1sc(NC(=O)c2cc3ccccc3oc2=O)c(C(=O)OC(C)C)c1-c1ccccc1 | 5.77%
NC(=O)CN(Cc1ccccc1)S(=O)(=O)c1ccc2c(c1)OCCO2 | 21.8%
COCc1cc(/C=N\NC(=O)COc2ccccc2)ccc1OC | -6.44%
CCCn1c(=O)c(C(=O)NCCc2ccc(OC)cc2)c(O)c2ccccc21 | 14.1%
CCOc1ccc(-n2c(=S)sc3c(=O)[nH]c(SCC(=O)NCC4CCCO4)nc32)cc1 (centres unmarked) | -3.04%
COc1ccccc1OCC(=O)Nc1ccc(C(N)=O)cc1 | 19.6%
Clc1ccc(C(c2nnnn2C2CCCC2)N2CCN(c3nc4ccccc4s3)CC2)cc1 (centres unmarked) | 5.68%

— publication PMC4336329 (PLoS ONE, 2015)
